Data taken from the supplement of paper PMC4604168 (melanoma cell lines).
The list shows a part of the results. Many values rest on one well or one pass, so single values are uncertain.

How the values were obtained:
Test in all cases: cell count relative to DMSO control; melanoma cells; higher = more viable cells
Settings in all cases: library dose: low library concentration; 72 h
[1] = system: MZ2-MEL
[2] = system: MeWo
[3] = system: RPMI7951
[4] = system: RVH-421
[5] = system: SkMel28
[6] = system: SkMel2
[7] = system: SkMel30
[8] = system: SkMel5
[9] = system: UACC257
[10] = system: UACC62
[11] = system: WM115
[12] = system: WM1716
[13] = system: WM1745
[14] = system: WM3526
[15] = system: WM3619
[16] = system: WM451Lu
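Note: cell number obtained by counting DAPI-stained nuclei in high-throughput microscope images with image analysis software, screen run in 1,536-well plates.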

| SMILES | cell count [1] [%] | cell count [2] [%] | cell count [3] [%] | cell count [4] [%] | cell count [5] [%] | cell count [6] [%] | cell count [7] [%] | cell count [8] [%] | cell count [9] [%] | cell count [10] [%] | cell count [11] [%] | cell count [12] [%] | cell count [13] [%] | cell count [14] [%] | cell count [15] [%] | cell count [16] [%] |
| --- | --- | --- | --- | --- | --- | --- | --- | --- | --- | --- | --- | --- | --- | --- | --- | --- |
| CS(=O)(=O)CCNCc1ccc(-c2ccc3ncnc(Nc4ccc(OCc5cccc(F)c5)c(Cl)c4)c3c2)o1 [lapatinib] + O=C(Nc1cccc(Cl)c1)Nc1ncc(CCNc2ncnc3ccsc23)s1 [SNS314] (first compound 0.8 µM, partner dose 0.0008 µM) | 100 | 95.7 | 74.3 | 93.8 | 88.4 | 106 | 92.9 | 97.8 | 81 | 104 | 92 | 114 | 97.5 | 102 | 113 | 95.2 |
| CNC(=O)c1cc(Oc2ccc(NC(=O)Nc3ccc(Cl)c(C(F)(F)F)c3)cc2)ccn1 [sorafenib] + O=c1cc(-c2cccc3c2Sc2ccccc2S3)oc(N2CCOCC2)c1 [KU55933] (first compound 0.4 µM, partner dose 1 µM) | 98.7 | 106 | 90 | 128 | 99.2 | 97.2 | 96.9 | 87.9 | 97.4 | 95 | 107 | 110 | 96 | 83 | 96.3 | 90.5 |
| CS(=O)(=O)CCNCc1ccc(-c2ccc3ncnc(Nc4ccc(OCc5cccc(F)c5)c(Cl)c4)c3c2)o1 [lapatinib] + COc1ccc2c(c1)CCC1C2CCC2(C)C(NCCCCCCN3C(=O)C=CC3=O)CCC12 [U73122] (first compound 0.8 µM, partner dose 0.4 µM) | 87.8 | 87.9 | 90 | 111 | 90.9 | 93.4 | 84.2 | 93.9 | 88.6 | 91.9 | 97.5 | 92 | 106 | 97.3 | 85.5 | 110 |
| CS(=O)(=O)CCNCc1ccc(-c2ccc3ncnc(Nc4ccc(OCc5cccc(F)c5)c(Cl)c4)c3c2)o1 [lapatinib] + COc1cc(N2CCC(N3CCN(C)CC3)CC2)ccc1Nc1ncc(Cl)c(Nc2ccccc2S(=O)(=O)C(C)C)n1 [NVP-TAE684] (first compound 0.8 µM, partner dose 0.08 µM) | 94.2 | 89.5 | 86 | 84.2 | 89.4 | 83.5 | 100 | 82.9 | 58.8 | 81.9 | 82 | 86.3 | 78.3 | 72.6 | 92.8 | 98.6 |
| CN1CCN(c2ccc3nc(-c4c(N)c5c(F)cccc5[nH]c4=O)[nH]c3c2)CC1 [Dovitinib] + COc1cc(N2CCC(N3CCN(C)CC3)CC2)ccc1Nc1ncc(Cl)c(Nc2ccccc2S(=O)(=O)C(C)C)n1 [NVP-TAE684] (first compound 0.1 µM, partner dose 0.08 µM) | 90.4 | 76.5 | 109 | 98.1 | 81.3 | 95 | 81.7 | 74.5 | 73.8 | 88.7 | 91 | 111 | 61.8 | 84.5 | 92.7 | 80.9 |
| CN1CCN(c2ccc3nc(-c4c(N)c5c(F)cccc5[nH]c4=O)[nH]c3c2)CC1 [Dovitinib] + CN(C)S(=O)(=O)c1ccc2c(c1)/C(=C/c1cc3c([nH]1)CCCC3)C(=O)N2 [SU6656] (first compound 0.1 µM, partner dose 0.4 µM) | 81.2 | 85.9 | 111 | 96.5 | 77.1 | 115 | 50.6 | 79.1 | 73.7 | 81.5 | 74.4 | 83.4 | 69 | 68 | 129 | 91.7 |
| CN1CCN(c2ccc3nc(-c4c(N)c5c(F)cccc5[nH]c4=O)[nH]c3c2)CC1 [Dovitinib] + O=c1cc(-c2cccc3c2Sc2ccccc2S3)oc(N2CCOCC2)c1 [KU55933] (first compound 0.1 µM, partner dose 1 µM) | 105 | 101 | 123 | 102 | 88.6 | 110 | 94.8 | 98.5 | 94.7 | 79.9 | 99.7 | 116 | 76.3 | 95.5 | 111 | 112 |
| CN1CCN(c2ccc3nc(-c4c(N)c5c(F)cccc5[nH]c4=O)[nH]c3c2)CC1 [Dovitinib] + OCCn1cc(-c2cnc3nnn(Cc4ccc5ncccc5c4)c3n2)cn1 [PF04217903] (first compound 0.1 µM, partner dose 1 µM) | 91.6 | 88.4 | 125 | 97.1 | 85.8 | 93.8 | 49.6 | 91.9 | 94.2 | 96.4 | 91.4 | 92 | 111 | 85.8 | 108 | 96.4 |
| C[C@@H](Oc1cc(-c2cnn(C3CCNCC3)c2)cnc1N)c1c(Cl)ccc(F)c1Cl [Crizotinib] + Cc1cc([N+](=O)[O-])ccc1NS(=O)(=O)c1cc(Cl)ccc1Cl [FH535] (first compound 0.2 µM, partner dose 1 µM) | 93 | 94.9 | 94.3 | 73.1 | 89.8 | 94.5 | 92.7 | 94.8 | 109 | 91.7 | 97.7 | 98.1 | 93.5 | 96.6 | 107 | 94.7 |
| CN1CCN(c2ccc3nc(-c4c(N)c5c(F)cccc5[nH]c4=O)[nH]c3c2)CC1 [Dovitinib] + CCCCCCCCCCCC1=C(O)C(=O)C=C(O)C1=O [Embelin] (first compound 0.1 µM, partner dose 1.2 µM) | 92.7 | 97.6 | 96.4 | 90.8 | 86 | 99.7 | 89.4 | 91.5 | 92.4 | 84 | 100 | 110 | 63.6 | 95.8 | 88.1 | 97.2 |
| CS(=O)(=O)CCNCc1ccc(-c2ccc3ncnc(Nc4ccc(OCc5cccc(F)c5)c(Cl)c4)c3c2)o1 [lapatinib] + Cn1cc(/C=C2\C(=O)Nc3cccnc32)c2ccccc21 [GW441756] (first compound 0.8 µM, partner dose 0.4 µM) | 91.2 | 91.3 | 92.5 | 132 | 81.4 | 98.9 | 108 | 71.7 | 54.7 | 87.6 | 92.8 | 101 | 101 | 104 | 124 | 106 |
| CS(=O)(=O)CCNCc1ccc(-c2ccc3ncnc(Nc4ccc(OCc5cccc(F)c5)c(Cl)c4)c3c2)o1 [lapatinib] + c1cc(-c2cnn3cc(-c4ccc(OCCN5CCCCC5)cc4)cnc23)ccn1 [Dorsomorphin] (first compound 0.8 µM, partner dose 0.4 µM) | 93.6 | 86.9 | 82.3 | 124 | 109 | 102 | 100 | 76 | 91.3 | 93.4 | 107 | 117 | 79.2 | 102 | 109 | 117 |
| CS(=O)(=O)CCNCc1ccc(-c2ccc3ncnc(Nc4ccc(OCc5cccc(F)c5)c(Cl)c4)c3c2)o1 [lapatinib] + COc1cc2c(Oc3ccc4[nH]c(C)cc4c3F)ncnc2cc1OCCCN1CCCC1 [cediranib] (first compound 0.8 µM, partner dose 0.4 µM) | 95.8 | 93.4 | 91.4 | 93.6 | 81.8 | 92.8 | 94.9 | 81.3 | 98 | 75.5 | 99 | 97 | 92.9 | 83.7 | 115 | 76.4 |
| CS(=O)(=O)CCNCc1ccc(-c2ccc3ncnc(Nc4ccc(OCc5cccc(F)c5)c(Cl)c4)c3c2)o1 [lapatinib] + COC(=O)c1sccc1S(=O)(=O)Nc1ccc(Nc2ccccc2)cc1OC [GSK0660] (first compound 0.8 µM, partner dose 1 µM) | 94.9 | 84.1 | 99 | 80.9 | 99.7 | 88.2 | 102 | 89.2 | 108 | 103 | 104 | 111 | 111 | 97.4 | 98.2 | 97.8 |
